Source: patent US20090088378A1, “LONG LASTING INHIBITORS OF VIRAL INFECTION” (priority 2007, published 2009)

Legend:
HIV-1 IIIB = details: 50% inhibition of virus replication, PHA-stimulated PBMCs, 7 days, reverse transcriptase activity
Experimental: HIV-1 IIIB was obtained through the AIDS Research and Reference Reagent Program, Division of AIDS, NIAID, NIH courtesy of Dr. Robert C. […] Fresh human peripheral blood mononuclear cells (PBMCs), seronegative for HIV and HBV, were isolated from blood of screened donors (Biological Specialty Corporation; Colmar, Pa.) using Lymphocyte Separation Medium (LSM; Cellgro® by Mediatech, Inc.; density 1.078+/−0.002 g/ml) following the manufacturer's instructions. Cells were stimulated by incubation in 4 μg/mL Phytohemagglutinin (PHA; Sigma) for 48-72 hours. Mitogenic stimulation was maintained by the addition of 20 U/mL recombinant human IL-2 (R&D Systems, Inc) to the culture medium. PHA-stimulated PBMCs from at least two donors were pooled, diluted in fresh medium and added to 96-well plates at 5×10^4 cells/well. Cells were infected (final MOI≈0.1) in the presence of 9 different concentrations of test compounds (triplicate wells/concentration) and incubated for 7 days. […] Following removal of supernatant samples, compound cytotoxicity was measured by the addition of 3-(4,5-dimethylthiazol-2-yl)-5-(3-carboxymethoxyphenyl)-2-(4-sulfophenyl)-2H-tetrazolium (MTS; CellTiter 96 Reagent, Promega) following the manufacturer's instructions. […] AZT (nucleoside reverse transcriptase inhibitor) was used as the assay control compound.

HIV-1 NL4-3G = assay: Antiviral activity in SCID-hu Thy/Liv mice inoculated with T-20-sensitive NL4-3G; type: in vivo

enfuvirtide
IC50 (HIV-1 IIIB): 2.2 nM
antiviral activity with infrequent or delayed dosing, HIV-1 RNA, p24, thymocyte depletion (HIV-1 NL4-3G; 30 mg/kg s.c. every fourth day (Q4D) or every seventh day (Q7D), beginning 1 day before or 3 days after inoculation): no reduction in HIV-1 RNA or p24 nor did it protect from thymocyte depletion
antiviral activity with infrequent dosing (HIV-1 NL4-3G; HIV-1-infected SCID-hu Thy/Liv mice, infrequent dosing): lost activity
